# From the supplement of paper PMC3334620
# Whole data set: some 33,000 sequences, median “E-score (-0.5 to 0.5)” near -0.011, cut for the highest 2% near 0.28. This is one part of the list.
# Molecular target: T1, Gcr1 (UniProt P07261)
# T1 sequence: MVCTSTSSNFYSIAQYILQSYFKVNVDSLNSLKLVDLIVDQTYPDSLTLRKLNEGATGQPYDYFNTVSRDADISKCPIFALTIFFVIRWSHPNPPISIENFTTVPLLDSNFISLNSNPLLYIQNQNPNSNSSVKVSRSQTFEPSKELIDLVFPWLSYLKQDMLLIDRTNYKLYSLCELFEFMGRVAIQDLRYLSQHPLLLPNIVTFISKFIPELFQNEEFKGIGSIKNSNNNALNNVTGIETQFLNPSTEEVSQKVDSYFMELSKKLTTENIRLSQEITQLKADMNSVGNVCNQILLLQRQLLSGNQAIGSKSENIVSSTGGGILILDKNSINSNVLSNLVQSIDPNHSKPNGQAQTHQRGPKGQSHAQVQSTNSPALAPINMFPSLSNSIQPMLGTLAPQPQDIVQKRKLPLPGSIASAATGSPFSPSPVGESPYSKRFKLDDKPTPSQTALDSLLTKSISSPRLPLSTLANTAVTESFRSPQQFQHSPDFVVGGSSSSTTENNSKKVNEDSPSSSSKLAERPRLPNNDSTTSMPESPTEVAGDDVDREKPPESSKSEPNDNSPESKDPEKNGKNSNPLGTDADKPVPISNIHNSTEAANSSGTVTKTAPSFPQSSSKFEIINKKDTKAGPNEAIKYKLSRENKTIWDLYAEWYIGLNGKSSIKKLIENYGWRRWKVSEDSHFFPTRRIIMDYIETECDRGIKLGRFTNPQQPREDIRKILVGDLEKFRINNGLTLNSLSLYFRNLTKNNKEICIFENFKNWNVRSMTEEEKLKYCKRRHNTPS
# Assay: PBM E-score (8-mer binding enrichment) (E-score (-0.5 to 0.5)); higher = stronger / more preferred TF binding; most listed sequences are background and not binding sites
# Conditions: protein concentration: 100 nM; construct: GST-full length
# Procedure: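 Universal 'all 10-mer' protein binding microarrays (Agilent AMADID 015681) probed with GST-tagged S. cerevisiae TFs (full-length or DBD) made by in vitro transcription/translation (PURExpress), about 100-200 nM. Bound TF was detected with fluorescent anti-GST. Each ungapped 8-mer (which stands for itself and its reverse complement) is scored by the PBM enrichment score (E-score), a modified Wilcoxon-Mann-Whitney statistic from -0.5 to +0.5, computed with the Universal PBM Analysis Suite. Scale: above 0.35 generally sequence-specific binding.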
row,Sequence,PBM E-score
1,CTTGTAAA,0.0987
2,CGCCAACA,0.17
3,CTTCTACA,0.126
4,GAACCTTA,0.115
5,ATTTCGTG,0.0974
6,AGGACCCG,0.0549
7,ATGGTTGG,-0.0547
8,AGTAATGG,-0.0258
9,GGGATCTA,0.097
10,GGGTTCAC,-0.216
11,CATAGACC,-0.0977
12,ATGCTGTA,0.0584
13,GAGTATCC,-0.0775
14,CAGCCCTA,0.17
15,AATATATA,0.0542
16,ATTTGTAA,0.149
17,TCGTCCCA,-0.0947
18,ATAGCCGA,3e-05
19,AACGCAGT,-0.173
20,CTAACAGC,0.0545
21,ACAATTCT,0.109
22,GCTGTAGA,-0.0143
23,CTCAGTGA,-0.197
24,AAGTGCTC,-0.0799
25,ACCACCAA,0.0926

row,Sequence,PBM E-score
1,ATGTGAAA,-0.0826
2,CAGTAGTA,-0.0203
3,TCGCATCA,0.0304
4,GAGTATCA,-0.209
5,ATGATCAG,-0.0733
6,CCTGATAC,-0.0282
7,ACAAGCGA,-0.191
8,GAGCGGCC,0.118
9,CCACTGCG,0.135
10,ATCTCGTC,-0.0648
11,AGCCCAAG,-0.0551
12,AAAATAGT,0.0219
13,AAATCTGT,-0.0402
14,CAGTGTTC,0.04
15,ATGTTCGC,-0.0946
16,AAAGCGGT,0.0425
17,AGGTCCAC,-0.11
18,CAAGAGGC,0.107
19,CCTTCGAC,-0.0984
20,GATCTCTA,-0.121
21,ACTTAACG,-0.138
22,CACGCTGC,0.236
23,CGGCACGA,-0.167
24,ACACCTAG,-0.0482
25,CATGTTCC,-0.00272

row,Sequence,PBM E-score
1,GCGTGCTA,-0.0687
2,ATAGATGG,-0.064
3,CTGCTCTA,-0.0135
4,ACCTGTCA,0.0631
5,CACCTATG,-0.151
6,AAATCTAC,0.0226
7,ACGGGTGC,-0.0528
8,GCTGCCTA,0.305
9,CGGTAGTA,-0.0106
10,CCAGTCTA,0.164
11,GCTTGTGA,-0.0357
12,CGCCTTTA,0.0726
13,CAATTATA,0.17
14,GATCTAAC,-0.0971
15,AATTTTCT,0.13
16,AACAGTCT,-0.219
17,ACACGGGC,0.0876
18,AGTACTCC,-0.225
19,CGTCAGCA,0.0676
20,AATATATG,-0.0833
21,CGCCGAGA,0.153
22,CTTCGTCA,0.0238
23,CGATACAC,-0.128
24,CCCGCCAC,0.0688
25,TACGCCAA,-0.0641

row,Sequence,PBM E-score
1,AAAGGGCG,0.0478
2,ACACTGAC,-0.223
3,ATTTGAAC,0.0624
4,ATAAATCC,-0.0318
5,CCCGATTC,-0.13
6,AACAAAGT,-0.042
7,CCCCGGTC,-0.188
8,ACGAAGAC,-0.0542
9,CGCTCTGA,-0.0875
10,CATTGGGA,0.0332
11,AATCAATA,-0.0831
12,GATCCATC,-0.199
13,CATCAGCA,-0.00431
14,CGTGGCTA,0.0149
15,ACCGTTCG,-0.332
16,ACAGCGAA,-0.00628
17,TGAGAGCA,-0.0171
18,ATCATTAA,0.137
19,CCAGTTGC,0.199
20,TGCCCCCA,-0.142
21,TACAGTCA,-0.141
22,AACGAACC,-0.151
23,AACCAATA,0.172
24,AAGTGTTG,0.0206
25,CCCCTCCG,-0.0427

row,Sequence,PBM E-score
1,AGTACATC,-0.0279
2,ACAAAGTA,-0.0207
3,ATATTGCC,-0.0967
4,AACACACC,-0.0463
5,AGGCGCCC,0.384
6,CGACAGTA,-0.221
7,AGTGAATA,0.106
8,GGCGCAAC,0.161
9,AAAGTAAC,-0.0434
10,ACCTCTAG,-0.0718
11,AGTAATAC,0.0146
12,CGGCTGGA,0.0497
13,ACGCCCAA,0.202
14,AACTGTGC,-0.181
15,CAAGCTCC,-0.133
16,ACCAGTGC,-0.201
17,CGGTAAGA,-0.142
18,AAGTGAGT,-0.147
19,CCCACGGG,0.0888
20,TCAGAACA,-0.0507
21,GCTGTCAA,-0.165
22,AAGGAAGG,-0.0778
23,CACTAGTC,-0.017
24,GTGCACTA,-0.146
25,GCGAGTAA,-0.11

row,Sequence,PBM E-score
1,TCCCCAGA,0.131
2,ATAGACCA,0.0138
3,ATCACCGA,-0.229
4,TAAGTATA,0.0543
5,AATTCCCT,-0.088
6,GGCACCAC,0.249
7,CATTGCGC,-0.106
8,ATCGAGCG,-0.167
9,TCTACCAA,-0.091
10,ACCCTGGA,0.00042
11,AGGGCAGA,-0.172
12,AATGCAAT,-0.303
13,GGTTGTTA,0.136
14,CGAACCAG,0.074
15,CCCTGTCA,-0.0788
16,AGTCTTCG,-0.124
17,GGGAACGA,-0.0791
18,AATCGGAT,0.0214
19,CCAGTCGA,0.115
20,AAAATTCA,0.15
21,CAAAGGTC,-0.126
22,ACGGTTGA,-0.135
23,AGTACCCG,-0.074
24,ACAGACCT,-0.224
25,GATCTACA,0.147

row,Sequence,PBM E-score
1,GGGTTGGA,-0.0248
2,CATCAAAC,-0.113
3,CAGTGGGA,0.0976
4,GACTGGAA,0.325
5,AGTAAGAT,0.0416
6,AACTCTCA,-0.0547
7,CTCCTGGC,0.0962
8,AAATAGTG,0.203
9,CTTACGGA,0.12
10,CGGAGAAG,-0.0611
11,CCCACAAA,0.305
12,CGCGCTGC,0.225
13,CCCGCTGC,0.0882
14,GCGCTGCA,0.141
15,GTCCCGCA,0.0217
16,CTGGAACA,-0.0357
17,CAGATAAG,0.0134
18,GGTATTCA,0.0919
19,CACCTGTC,-0.112
20,AGCACTCC,0.0725
21,ACAGGGCA,-0.222
22,GTCTTATA,-0.00394
